Results: PubChem BioAssay AID1347073 (National Center for Advancing Translational Sciences (NCATS), 2019)
About 200 (0.44%) of roughly 45,000 compounds were called active. Not shown: some 7% with an inconclusive outcome. Calls follow the shape of the dose curve; as a rule, active = well fitted activation curve with a large enough effect; inconclusive = small, poorly fitted or top-dose-only effect; inactive = no such curve, though single readings can be large or run the other way. The list shows a part of the results.

experiment: qHTS of TDP-43 Inhibitors: NCGC Sytravon Library Screen; settings: yeast TDP-43 toxicity rescue, BacTiter-Glo growth, 24 h; series mostly up to 46.1 µM; growth rescue (activation): at the top concentration; also: nearly all actives have a fitted effect of over 55% in size; as to growth rescue (activation): 0% is about no effect
Outline: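 TDP-43-expressing yeast, pregrown in raffinose, seeded at OD600 0.02 in galactose medium with compound for 24 hr at 30 deg C. Growth read by BacTiter-Glo luminescence, so rescue of toxicity appears as activation.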
Potency is read from the fitted curve at half-maximal effect.

**Q.** With `COc1ccc(NC(=O)NC2(C)CCS(=O)(=O)C2)cc1` (stereo not drawn) as the compound, how does the “growth rescue (activation)” value read?
**A.** inactive: -7.91%

**Q.** For `COc1ccc(CC(=O)Nc2cccc(-c3nnc(-c4ccco4)o3)c2)cc1`, which “growth rescue (activation)” value is on record?
**A.** inactive: 19.6%

**Q.** With `C=CCNc1ncnc2c1ncn2[C@H]1CN(C2CCCC2)C[C@@H](CO)O1` as the compound, how does the “growth rescue (activation)” value read?
**A.** inactive: 9.38%

**Q.** With `CCC(=O)Nc1cc2nn(-c3ccc(C)cc3)nc2cc1C` as the compound, how does the Potency read?
**A.** inactive

**Q.** With `CC(C)N(C(C)C)S(=O)(=O)c1ccc(N2CCc3ccccc3C2)nc1` as the compound, how does the “growth rescue (activation)” value read?
**A.** inactive: 37.7%

**Q.** With `COc1ccc(Cl)cc1NC(=O)CN(C)Cc1cccs1` as the compound, how does the “growth rescue (activation)” value read?
**A.** inactive: 12.3%

**Q.** Which “growth rescue (activation)” value does the source give for `Cc1ccc(O)c(NC(=O)c2cc(-c3cccs3)on2)c1` here?
**A.** inactive: 6.13%

**Q.** For `COC(=O)c1ccc(CNC(=O)CCC(=O)N2CCOCC2)cc1`, which “growth rescue (activation)” value is on record?
**A.** inactive: -17.8%

**Q.** For `COc1ccc(S(=O)(=O)N2CCOCC2)cc1NC(=O)CSc1nnc2n1CCCCC2`, which “growth rescue (activation)” value is on record?
**A.** inactive: 30.7%

**Q.** With `CCOC(=O)c1c(N2C(=O)Nc3ccccc3N2O)n[nH]c1-c1cccc(Cl)c1` as the compound, how does the “growth rescue (activation)” value read?
**A.** inactive: 14.2%

**Q.** With `COc1ccccc1NC(=O)Cn1c([N+](=O)[O-])cnc1C` as the compound, how does the “growth rescue (activation)” value read?
**A.** inactive: 3.15%

**Q.** Which “growth rescue (activation)” value does the source give for `CCOC(=O)c1c(NC2=NS(=O)(=O)c3ccccc32)sc2c1CCC(C)C2` (stereo not drawn) here?
**A.** inactive: -3.09%

**Q.** With `COC(=O)CC(c1ccc(OC)c(OC)c1)c1ccc(OC)c(OC)c1` as the compound, how does the “growth rescue (activation)” value read?
**A.** inactive: 11.9%

**Q.** Which “growth rescue (activation)” value does the source give for `Cc1ccc(C(=O)NC(C)c2ccc(S(N)(=O)=O)cc2)s1` (stereo not drawn) here?
**A.** inactive: 13.3%

**Q.** For `COc1ccc(Cn2nnc3c(=O)[nH]c(C4CCN(C(=O)c5ccccc5Cl)CC4)nc32)cc1`, which “growth rescue (activation)” value is on record?
**A.** inactive: -27.2%

**Q.** For `Oc1ccc(Cl)cc1N=Cc1sc2ccccc2c1Cl`, which “growth rescue (activation)” value is on record?
**A.** inactive: 0.38%

**Q.** With `COc1ccc(/C=C2/C(=O)N(Cc3ccccc3)N=C2C)cc1` as the compound, how does the “growth rescue (activation)” value read?
**A.** inactive: -8.48%

**Q.** Which Potency does the source give for `C=CCn1c(-c2cc(-c3ccc(C)cc3)nc3ccccc23)n[nH]c1=S` here?
**A.** active: 14.1 µM

**Q.** With `N#Cc1cccc(NC(=O)c2cc(C3CCCCN3S(=O)(=O)c3cccc4cccnc34)on2)c1` (stereo not drawn) as the compound, how does the “growth rescue (activation)” value read?
**A.** inactive: 27%

**Q.** Which “growth rescue (activation)” value does the source give for `COc1ccc(C2c3c(ccc4ccccc34)Oc3ncn4nc(Cc5ccccc5)nc4c32)cc1OC` (stereo not drawn) here?
**A.** inactive: 4.69%

**Q.** Which “growth rescue (activation)” value does the source give for `CCC(C(=O)Nc1cccc(C(=O)O)c1)c1ccccc1` (stereo not drawn) here?
**A.** inactive: 0.0319%

**Q.** With `Cc1noc(C)c1COC(=O)[C@@H](NC(=O)c1ccccc1Cl)C(C)C` as the compound, how does the “growth rescue (activation)” value read?
**A.** inactive: 4.73%

**Q.** For `CCN(CC)c1ccc(/C=C/c2cccc[n+]2C)c(OC)c1`, which “growth rescue (activation)” value is on record?
**A.** inactive: -12.3%

**Q.** For `Cc1nc2ccccc2c(=O)n1NC(=O)/C=C/c1ccccc1Cl`, which “growth rescue (activation)” value is on record?
**A.** inactive: 1.15%

**Q.** With `CC(=O)Nc1ccc(NC(=O)CSc2ncnc3c2cnn3Cc2ccccc2)cc1` as the compound, how does the “growth rescue (activation)” value read?
**A.** inactive: -3.1%

**Q.** Which “growth rescue (activation)” value does the source give for `Nc1nnc(SCC(=O)c2ccc3c(c2)NC(=O)CO3)s1` here?
**A.** inactive: -0.303%

**Q.** With `NS(=O)(=O)c1ccc(NC(=S)N2CCN(c3ccccc3)CC2)cc1` as the compound, how does the “growth rescue (activation)” value read?
**A.** inactive: 5.6%

**Q.** Which “growth rescue (activation)” value does the source give for `COc1cc(S(=O)(=O)N2CCn3cccc3C2C)ccc1NC(C)=O` (stereo not drawn) here?
**A.** inactive: 25.9%

**Q.** Which “growth rescue (activation)” value does the source give for `CSc1ccc(/C=C/C(=O)OCC(=O)N2CCCCCC2)cc1` here?
**A.** inactive: 24%

**Q.** With `Cc1ccc(/C=N/N2CCOCC2)s1` as the compound, how does the “growth rescue (activation)” value read?
**A.** inactive: 14.3%

**Q.** For `COCCNC(=S)N/N=C(\C)c1ccccc1OC`, which “growth rescue (activation)” value is on record?
**A.** inactive: -23.1%

**Q.** Which “growth rescue (activation)” value does the source give for `NC(=O)c1ccc(NC(=O)CSc2nnc(C3CC3)n2C2CC2)cc1` here?
**A.** inactive: 18.2%

**Q.** Which “growth rescue (activation)” value does the source give for `CC(=O)Nc1ccc(-c2ccnc3c2CC(C(=O)Nc2cccc(C(C)=O)c2)O3)cc1` (stereo not drawn) here?
**A.** inactive: 4.88%

**Q.** Which “growth rescue (activation)” value does the source give for `CC1=C(C(=O)OCC(C)C)C(c2ccc(Br)s2)NC(=O)N1` (stereo not drawn) here?
**A.** inactive: 6.95%

**Q.** For `O=C(c1cccc(-c2cncc3nccn23)c1)N1CCOCC1`, which “growth rescue (activation)” value is on record?
**A.** inactive: -7.46%

**Q.** For `COc1ccc(OC(C)C(=O)N2CCCc3ccccc32)cc1` (stereo not drawn), which “growth rescue (activation)” value is on record?
**A.** inactive: 29.3%

**Q.** Which “growth rescue (activation)” value does the source give for `CCOC(=O)/C(C#N)=C1\C(=O)N(Cc2ccccc2)c2ccccc21` here?
**A.** inactive: -3.65%

**Q.** For `COCCn1ccc(O)c(Cc2ccccc2)c1=O`, which “growth rescue (activation)” value is on record?
**A.** inactive: -25.4%

**Q.** Which “growth rescue (activation)” value does the source give for `Cc1c(CCC(=O)O)c(=O)oc2c(C)c(OCc3cc4c(cc3Cl)OCO4)ccc12` here?
**A.** inactive: 15.3%

**Q.** For `Cn1c(NC(=O)/C=C/c2ccco2)cc(=O)n(C)c1=O`, which “growth rescue (activation)” value is on record?
**A.** inactive: -19.1%

**Q.** Which “growth rescue (activation)” value does the source give for `CSCc1ccc(C(=O)Nc2ccc(C(N)=O)cc2)cc1` here?
**A.** inactive: 7.72%

**Q.** For `O=C1c2ccccc2C(=O)N1c1ccccc1S(=O)C(F)(F)F` (stereo not drawn), which “growth rescue (activation)” value is on record?
**A.** inactive: 17.3%

**Q.** For `CC12CN3CCN(CC(C3)/C1=N\NC(=O)Nc1cccc(Cl)c1)C2`, which “growth rescue (activation)” value is on record?
**A.** inactive: 0.199%

**Q.** Which “growth rescue (activation)” value does the source give for `Oc1cccc2ccc[n+](CC(O)Cn3c4ccccc4c4ccccc43)c12` (stereo not drawn) here?
**A.** inactive: 6.09%

**Q.** With `O=C(N/N=C/c1cccc2nccnc12)c1ccncc1` as the compound, how does the “growth rescue (activation)” value read?
**A.** inactive: -1.7%

**Q.** For `C=CCN1C(=O)/C(=C2/Sc3ccc(OC)cc3N2C)SC1=Nc1ccccc1`, which “growth rescue (activation)” value is on record?
**A.** inactive: 9.79%

**Q.** With `COc1ccc2c(C)cc(SCC(=O)Nc3cc(C(N)=O)cc(C(N)=O)c3)nc2c1` as the compound, how does the “growth rescue (activation)” value read?
**A.** inactive: 22.3%

**Q.** With `CCOC(=O)c1sc2nc(C)n(N)c(=O)c2c1C` as the compound, how does the “growth rescue (activation)” value read?
**A.** inactive: 23.5%

**Q.** For `CSc1nnc(-c2ccc(S(=O)(=O)N3CCCCC3)cc2)o1`, which “growth rescue (activation)” value is on record?
**A.** inactive: 9.04%

**Q.** For `O=C(O)c1cccc(Nc2ccc([N+](=O)[O-])c3nonc23)c1`, which “growth rescue (activation)” value is on record?
**A.** inactive: 24.4%

**Q.** With `CCN(CC)CCCNC(=S)N(Cc1cccnc1)Cc1cc2cc(C)cc(C)c2[nH]c1=O` as the compound, how does the “growth rescue (activation)” value read?
**A.** inactive: -0.216%

**Q.** With `COc1ccc(NC(=O)CSc2nc3nc(-c4cccs4)cc(C(F)(F)F)c3c(=O)[nH]2)c(OC)c1` as the compound, how does the “growth rescue (activation)” value read?
**A.** inactive: 2.46%

**Q.** Which “growth rescue (activation)” value does the source give for `O=C(Cn1nc(-c2ccccc2)c2ccccc2c1=O)NN1CCOCC1` here?
**A.** inactive: 4.21%
